Measured values: US9023758B2, “Methods for promoting plant health” (University of Delaware, priority 2009, dated 2015)

Test system: DC3000
Assay: broth micro-dilution assay, direct antimicrobial effect
Assay type: cell-based, Pseudomonas syringae pv tomato
Details: 1 ml of 10 mM stock˜88 μg

CC(=O)C(C)O (stereo not shown) [acetoin, 3-hydroxy-2-butanone]
susceptibility of DC3000 to direct antimicrobial treatment: not susceptible
